# Assay results published in the supplement of paper PMC10037445.
# ± gives the standard deviation of the averaged measurements. Whole data set: some 2,900 compounds, median “NF-kB SEAP reporter activity, fold change vs agonist alone” near 0.99, cut for the highest 2% near 2.6. The list shows a part of the results.
# Columns and labels:
# RAW-Dual [1] = test: NF-kB SEAP reporter activity, fold change vs agonist alone; cytotoxicity flag (confluency mask): cytotoxic (confluency <70% of control); higher = enhanced NF-kB activity
# Summary of the method: (§1)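 Library stock was pin-tooled at 50 nL into 384-well plates of RAW-Dual macrophages (50,000 cells/well, DMEM), followed 1 h later by a PRR agonist, and the cells were kept at 37 °C, 5% CO2. Supernatant collected after 20 hours was read for IRF by QuantiLuc luminescence and for NF-κB by QuantiBlue absorbance at 620 nm. Reporter activity is fold change over agonist-alone wells, and a well counted as cytotoxic when its IncuCyte confluency was below 70% of agonist controls in both mask sets.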
# RAW-Dual [2] = test: NF-kB SEAP reporter activity, fold change vs agonist alone; cytotoxicity flag (confluency mask): not cytotoxic; higher = enhanced NF-kB activity
# Summary of the method: as §1
# RAW-Dual [3] = test: NF-kB SEAP reporter activity, fold change vs agonist alone; higher = enhanced NF-kB activity; conditions: library stock concentration (final ~1000-fold dilution): 10 mM
# Summary of the method: as §1
# [4] = agonist: ODN 1826 (TLR9) 0.5 ug/mL
# [5] = agonist: Pam2CSK4 (TLR2/6) 0.1 ug/mL
# [6] = agonist: Pam3CSK4 (TLR2/1) 0.1 ug/mL
# [7] = cytotoxicity flag (confluency mask): not cytotoxic, agonist: Imiquimod (TLR7) […]
# [8] = cytotoxicity flag (confluency mask): not cytotoxic, agonist: MPLA (TLR4) […]
# [9] = cytotoxicity flag (confluency mask): cytotoxic (confluency <70% of control), agonist: Imiquimod (TLR7) […]
# [10] = cytotoxicity flag (confluency mask): cytotoxic (confluency <70% of control), agonist: MPLA (TLR4) […]
compound,measurement,setting,value
CN(CCNCc1cn(Cc2ccc(Cl)cc2)nn1)CCNc1ccnc2cc(Cl)ccc12.O=C(O)C(F)(F)F (library stock concentration (final ~1000-fold dilution): 10 mM),NF-kB SEAP reporter activity,RAW-Dual [1]; agonist: LPS (TLR4) 0.1 ug/mL,2.67
same,NF-kB SEAP reporter activity,RAW-Dual [1]; [4],0.269
same,NF-kB SEAP reporter activity,RAW-Dual [1]; [5],1.18
same,NF-kB SEAP reporter activity,RAW-Dual [1]; [6],1.87
CC(=O)Oc1cc2c(s1)CCN(C(C(=O)C1CC1)c1ccccc1F)C2 (stereo unspecified) (library stock concentration (final ~1000-fold dilution): 10 mM),NF-kB SEAP reporter activity,RAW-Dual [2]; agonist: LPS (TLR4) 0.1 ug/mL,1
same,NF-kB SEAP reporter activity,RAW-Dual [2]; [4],1.21
same,NF-kB SEAP reporter activity,RAW-Dual [2]; [5],0.789
same,NF-kB SEAP reporter activity,RAW-Dual [2]; [6],0.717
CC(=O)Oc1cc2c(s1)CCN(C(C(=O)C1CC1)c1ccccc1F)C2 (stereo unspecified),NF-kB SEAP reporter activity,RAW-Dual [3]; [7],1.82
same,NF-kB SEAP reporter activity,RAW-Dual [3]; [8],1.75
COc1cc2c(OC3OC(CO)C4OC(C)(C)OC4C3O)c3c(c(-c4ccc5c(c4)OCO5)c2cc1OC)C(=O)OC3 (stereo unspecified) (library stock concentration (final ~1000-fold dilution): 10 mM),NF-kB SEAP reporter activity,RAW-Dual [2]; agonist: LPS (TLR4) 0.1 ug/mL,2.9
same,NF-kB SEAP reporter activity,RAW-Dual [2]; [4],0.644
same,NF-kB SEAP reporter activity,RAW-Dual [2]; [5],1.95
same,NF-kB SEAP reporter activity,RAW-Dual [2]; [6],3.92
COc1cc2c(OC3OC(CO)C4OC(C)(C)OC4C3O)c3c(c(-c4ccc5c(c4)OCO5)c2cc1OC)C(=O)OC3 (stereo unspecified),NF-kB SEAP reporter activity,RAW-Dual [3]; [7],0.364
same,NF-kB SEAP reporter activity,RAW-Dual [3]; [8],2.28
CC(C)C(=O)Nc1ccc([N+](=O)[O-])c(C(F)(F)F)c1,NF-kB SEAP reporter activity,RAW-Dual [3]; [7],1.63
same,NF-kB SEAP reporter activity,RAW-Dual [3]; [8],1.16
CC(C)C(=O)Nc1ccc([N+](=O)[O-])c(C(F)(F)F)c1 (library stock concentration (final ~1000-fold dilution): 10 mM),NF-kB SEAP reporter activity,RAW-Dual [2]; agonist: LPS (TLR4) 0.1 ug/mL,1.38
same,NF-kB SEAP reporter activity,RAW-Dual [2]; [4],1.18
same,NF-kB SEAP reporter activity,RAW-Dual [2]; [5],1.01
same,NF-kB SEAP reporter activity,RAW-Dual [2]; [6],1.6
S=C(NCc1ccc2c(c1)OCO2)N1CCN(c2ncnc3c2oc2ccccc23)CC1,NF-kB SEAP reporter activity,RAW-Dual [3]; [7],0.726
same,NF-kB SEAP reporter activity,RAW-Dual [3]; [8],0.868
S=C(NCc1ccc2c(c1)OCO2)N1CCN(c2ncnc3c2oc2ccccc23)CC1 (library stock concentration (final ~1000-fold dilution): 10 mM),NF-kB SEAP reporter activity,RAW-Dual [2]; agonist: LPS (TLR4) 0.1 ug/mL,1.39
same,NF-kB SEAP reporter activity,RAW-Dual [2]; [4],0.905
same,NF-kB SEAP reporter activity,RAW-Dual [2]; [5],0.502
same,NF-kB SEAP reporter activity,RAW-Dual [2]; [6],0.768
Nc1ncnc2c1ncn2C(C=O)OC(C=O)CO (stereo unspecified),NF-kB SEAP reporter activity,RAW-Dual [3]; [7],1.31
same,NF-kB SEAP reporter activity,RAW-Dual [3]; [8],0.717
Nc1ncnc2c1ncn2C(C=O)OC(C=O)CO (stereo unspecified) (library stock concentration (final ~1000-fold dilution): 10 mM),NF-kB SEAP reporter activity,RAW-Dual [2]; agonist: LPS (TLR4) 0.1 ug/mL,0.475
same,NF-kB SEAP reporter activity,RAW-Dual [2]; [4],0.527
same,NF-kB SEAP reporter activity,RAW-Dual [2]; [5],0.132
same,NF-kB SEAP reporter activity,RAW-Dual [2]; [6],0.339
CC1(C)CCC2=C(O1)c1ccccc1C(=O)C2=O,NF-kB SEAP reporter activity,RAW-Dual [3]; [9],0.125
same,NF-kB SEAP reporter activity,RAW-Dual [3]; [10],0.372
CC1(C)CCC2=C(O1)c1ccccc1C(=O)C2=O (library stock concentration (final ~1000-fold dilution): 10 mM),NF-kB SEAP reporter activity,RAW-Dual [1]; agonist: LPS (TLR4) 0.1 ug/mL,0.208
same,NF-kB SEAP reporter activity,RAW-Dual [1]; [4],0.186
same,NF-kB SEAP reporter activity,RAW-Dual [1]; [5],0.0602
same,NF-kB SEAP reporter activity,RAW-Dual [1]; [6],0.154
Cc1noc(C)c1-c1ccc(-c2cc(C(N)=O)c(NC(N)=O)s2)c(OC2CCNC2)c1 (stereo unspecified) (library stock concentration (final ~1000-fold dilution): 10 mM),NF-kB SEAP reporter activity,RAW-Dual [2]; agonist: LPS (TLR4) 0.1 ug/mL,0.567 ± 0.07
same,NF-kB SEAP reporter activity,RAW-Dual [2]; [4],0.449 ± 0.019
same,NF-kB SEAP reporter activity,RAW-Dual [2]; [5],0.275 ± 0.0078
same,NF-kB SEAP reporter activity,RAW-Dual [2]; [6],0.392 ± 0.058
Cc1noc(C)c1-c1ccc(-c2cc(C(N)=O)c(NC(N)=O)s2)c(OC2CCNC2)c1 (stereo unspecified),NF-kB SEAP reporter activity,RAW-Dual [3]; [7],0.654 ± 0.054
same,NF-kB SEAP reporter activity,RAW-Dual [3]; [8],0.683 ± 0.15
O=C(NCC(O)CN1CCc2ccccc2C1)c1ccnc(NC2CCC2)c1 (stereo unspecified) (library stock concentration (final ~1000-fold dilution): 10 mM),NF-kB SEAP reporter activity,RAW-Dual [2]; agonist: LPS (TLR4) 0.1 ug/mL,0.908
same,NF-kB SEAP reporter activity,RAW-Dual [2]; [4],0.581
same,NF-kB SEAP reporter activity,RAW-Dual [2]; [5],1.03
same,NF-kB SEAP reporter activity,RAW-Dual [2]; [6],0.884
O=C(NCC(O)CN1CCc2ccccc2C1)c1ccnc(NC2CCC2)c1 (stereo unspecified),NF-kB SEAP reporter activity,RAW-Dual [3]; [7],0.885
same,NF-kB SEAP reporter activity,RAW-Dual [3]; [8],0.997
Nc1nonc1/C(=N\O)Nc1ccc(F)c(Cl)c1,NF-kB SEAP reporter activity,RAW-Dual [3]; [7],0.904
same,NF-kB SEAP reporter activity,RAW-Dual [3]; [8],0.933
Nc1nonc1/C(=N\O)Nc1ccc(F)c(Cl)c1 (library stock concentration (final ~1000-fold dilution): 10 mM),NF-kB SEAP reporter activity,RAW-Dual [2]; agonist: LPS (TLR4) 0.1 ug/mL,1.01
same,NF-kB SEAP reporter activity,RAW-Dual [2]; [4],0.882
same,NF-kB SEAP reporter activity,RAW-Dual [2]; [5],0.938
same,NF-kB SEAP reporter activity,RAW-Dual [2]; [6],0.585
COC(=O)C1=C(C)NC(C)=C(C(=O)OC(C)C)C1c1cccc2nonc12 (stereo unspecified) (library stock concentration (final ~1000-fold dilution): 10 mM),NF-kB SEAP reporter activity,RAW-Dual [2]; agonist: LPS (TLR4) 0.1 ug/mL,1.4
same,NF-kB SEAP reporter activity,RAW-Dual [2]; [4],0.719
same,NF-kB SEAP reporter activity,RAW-Dual [2]; [5],0.685
same,NF-kB SEAP reporter activity,RAW-Dual [2]; [6],0.926
COC(=O)C1=C(C)NC(C)=C(C(=O)OC(C)C)C1c1cccc2nonc12 (stereo unspecified),NF-kB SEAP reporter activity,RAW-Dual [3]; [7],0.735
same,NF-kB SEAP reporter activity,RAW-Dual [3]; [8],1.36
Cn1cncc1C(N)(c1ccc(Cl)cc1)c1ccc2c(c1)c(-c1cccc(Cl)c1)cc(=O)n2C (stereo unspecified),NF-kB SEAP reporter activity,RAW-Dual [3]; [9],1.24
same,NF-kB SEAP reporter activity,RAW-Dual [3]; [10],0.539
Cn1cncc1C(N)(c1ccc(Cl)cc1)c1ccc2c(c1)c(-c1cccc(Cl)c1)cc(=O)n2C (stereo unspecified) (library stock concentration (final ~1000-fold dilution): 10 mM),NF-kB SEAP reporter activity,RAW-Dual [1]; agonist: LPS (TLR4) 0.1 ug/mL,0.821
same,NF-kB SEAP reporter activity,RAW-Dual [1]; [4],0.471
same,NF-kB SEAP reporter activity,RAW-Dual [1]; [5],0.191
same,NF-kB SEAP reporter activity,RAW-Dual [1]; [6],0.317
Cc1cc(C)nc(NC(=S)N2CCN(Cc3ccc(C(F)(F)F)cc3)CC2)c1,NF-kB SEAP reporter activity,RAW-Dual [3]; [7],0.758
same,NF-kB SEAP reporter activity,RAW-Dual [3]; [8],0.954
Cc1cc(C)nc(NC(=S)N2CCN(Cc3ccc(C(F)(F)F)cc3)CC2)c1 (library stock concentration (final ~1000-fold dilution): 10 mM),NF-kB SEAP reporter activity,RAW-Dual [2]; agonist: LPS (TLR4) 0.1 ug/mL,0.783
same,NF-kB SEAP reporter activity,RAW-Dual [2]; [4],0.834
same,NF-kB SEAP reporter activity,RAW-Dual [2]; [5],0.805
same,NF-kB SEAP reporter activity,RAW-Dual [2]; [6],0.809
